Source: patent US20240255507A1

Tests used:
Assay in all cases: ELISA, antigen coated, binder 1 µg/mL, chemiluminescence
Details in all cases: remark: other sources report otherwise
[1] = target: GCCDC1 wild-type RBD (coronavirus GCCDC1 strain (Nobecovirus subgenus))
[2] = target: Hp wild-type RBD (coronavirus Hp strain (Hibecovirus subgenus))
[3] = target: Zaria wild-type RBD (coronavirus Zaria strain (Hibecovirus subgenus))

B1: BD23 (antibody)
heavy: QVQLVQSGSELKKPGASVKVSCKASGYTFTSYAMNWVRQAPGQGLEWMGWINTNTGNPTYAQGFTGRFVFSLDTSVSTAYLQISSLKAEDTAVYYCARPQGGSSWYRDYYYGMDVWGQGTTVTVSS[sequence of human IgG1 constant region not given]
light: [sequence of about 100 residues not given][sequence of about 100 residues not given]
Q: With B1 as the binder, how does the signal intensity [1] read?
A: 70

Q: What about the signal intensity [2] of the same binder?
A: 70

Q: And the signal intensity [3]?
A: 240
